Experimental data published in the supplement of paper PMC4604168 (melanoma cell lines).
The list shows a part of the results. Many values rest on one well or one pass, so single values are uncertain.

Legend:
Assay in all cases: cell count relative to DMSO control; melanoma cells; higher = more viable cells
Details in all cases: library dose: low library concentration; 72 h
MZ2-MEL = tested on: MZ2-MEL
MeWo = tested on: MeWo
RPMI7951 = tested on: RPMI7951
RVH-421 = tested on: RVH-421
SkMel28 = tested on: SkMel28
SkMel2 = tested on: SkMel2
SkMel30 = tested on: SkMel30
UACC62 = tested on: UACC62
WM115 = tested on: WM115
WM1716 = tested on: WM1716
WM1745 = tested on: WM1745
WM3526 = tested on: WM3526
WM3619 = tested on: WM3619
WM451Lu = tested on: WM451Lu
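Also: cell number obtained by counting DAPI-stained nuclei in high-throughput microscope images with image analysis software, screen run in 1,536-well plates.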

Row | Compound | cell count (MZ2-MEL) [%] | cell count (MeWo) [%] | cell count (RPMI7951) [%] | cell count (RVH-421) [%] | cell count (SkMel28) [%] | cell count (SkMel2) [%] | cell count (SkMel30) [%] | cell count (UACC62) [%] | cell count (WM115) [%] | cell count (WM1716) [%] | cell count (WM1745) [%] | cell count (WM3526) [%] | cell count (WM3619) [%] | cell count (WM451Lu) [%]
1 | CC[C@]1(O)C[C@H]2CN(CCc3c([nH]c4ccccc34)[C@@](C(=O)OC)(c3cc4c(cc3OC)N(C=O)[C@H]3[C@@](O)(C(=O)OC)[C@H](OC(C)=O)[C@]5(CC)C=CCN6CC[C@]43[C@@H]65)C2)C1 [vincristine] + CC(=O)c1c(C)c2cnc(Nc3ccc(N4CCNCC4)cn3)nc2n(C2CCCC2)c1=O [palbociclib] (first compound 0.0001 µM, partner dose 0.04 µM) | 80.5 | 69.7 | 47.8 | 86.8 | 52.3 | 75.7 | 50.5 | 57.4 | 50.1 | 33.2 | 63.2 | 54.7 | 52.3 | 54.3
2 | CC[C@]1(O)C[C@H]2CN(CCc3c([nH]c4ccccc34)[C@@](C(=O)OC)(c3cc4c(cc3OC)N(C=O)[C@H]3[C@@](O)(C(=O)OC)[C@H](OC(C)=O)[C@]5(CC)C=CCN6CC[C@]43[C@@H]65)C2)C1 [vincristine] + CN1CCN(c2ccc3nc(-c4c(N)c5c(F)cccc5[nH]c4=O)[nH]c3c2)CC1 [Dovitinib] (first compound 0.0001 µM, partner dose 0.1 µM) | 93.8 | 86.9 | 73.8 | 95.6 | 66.5 | 80.2 | 63.4 | 67.2 | 60.7 | 46 | 96 | 61.4 | 46.5 | 49.4
3 | Cc1cc(Nc2cc(N3CCN(C)CC3)nc(Sc3ccc(NC(=O)C4CC4)cc3)n2)n[nH]1 [Tozasertib] + COc1cc([C@@H]2c3cc4c(cc3[C@@H](O[C@@H]3O[C@@H]5CO[C@@H](C)O[C@H]5[C@H](O)[C@H]3O)[C@H]3COC(=O)[C@H]23)OCO4)cc(OC)c1O [etoposide] (first compound 0.006 µM, partner dose 0.02 µM) | 94.2 | 84.1 | 94.4 | 87.9 | 89.2 | 89.9 | 97.6 | 84.5 | 90 | 74 | 84.5 | 94 | 87.4 | 84.5
4 | Cc1cc(Nc2cc(N3CCN(C)CC3)nc(Sc3ccc(NC(=O)C4CC4)cc3)n2)n[nH]1 [Tozasertib] + Nc1ncn([C@H]2C[C@H](O)[C@@H](CO)O2)c(=O)n1 [decitabine] (first compound 0.006 µM, partner dose 0.1 µM) | 81.8 | 72.6 | 71.9 | 79.1 | 87.4 | 103 | 89.7 | 67 | 78.9 | 72.4 | 75.3 | 82.1 | 104 | 78.5
5 | N#CC[C@H](C1CCCC1)n1cc(-c2ncnc3[nH]ccc23)cn1 [ruxolitinib] + O=C(O)c1ccc2c(c1)nc(Nc1cccc(Cl)c1)c1ccncc12 [CX4945] (first compound 1 µM, partner dose 0.4 µM) | 83.7 | 91.4 | 113 | 99.9 | 95.3 | 102 | 92 | 97.7 | 114 | 102 | 101 | 104 | 76.3 | 73.5
6 | CC[C@]1(O)C[C@H]2CN(CCc3c([nH]c4ccccc34)[C@@](C(=O)OC)(c3cc4c(cc3OC)N(C=O)[C@H]3[C@@](O)(C(=O)OC)[C@H](OC(C)=O)[C@]5(CC)C=CCN6CC[C@]43[C@@H]65)C2)C1 [vincristine] + Cc1cc(Nc2cc(N3CCN(C)CC3)nc(/C=C/c3ccccc3)n2)n[nH]1 [ENMD2076] (first compound 0.0001 µM, partner dose 0.04 µM) | 88.5 | 83.6 | 57.5 | 97.9 | 77.9 | 98.8 | 56.2 | 54.4 | 49.8 | 42.5 | 102 | 66.9 | 50.8 | 44.6
7 | N#CC[C@H](C1CCCC1)n1cc(-c2ncnc3[nH]ccc23)cn1 [ruxolitinib] + Nc1ccn([C@@H]2O[C@H](CO)[C@@H](O)C2(F)F)c(=O)n1 [gemcitabine] (first compound 1 µM, partner dose 0.0004 µM) | 97.6 | 82.3 | 80.4 | 63.4 | 106 | 106 | 96.8 | 87.4 | 95.4 | 97.6 | 79.5 | 105 | 65.4 | 93.9
8 | CC[C@]1(O)C[C@H]2CN(CCc3c([nH]c4ccccc34)[C@@](C(=O)OC)(c3cc4c(cc3OC)N(C=O)[C@H]3[C@@](O)(C(=O)OC)[C@H](OC(C)=O)[C@]5(CC)C=CCN6CC[C@]43[C@@H]65)C2)C1 [vincristine] + CC1(C)CCC(c2ccc(Cl)cc2)=C(CN2CCN(c3ccc(C(=O)NS(=O)(=O)c4ccc(N[C@H](CCN5CCOCC5)CSc5ccccc5)c(S(=O)(=O)C(F)(F)F)c4)cc3)CC2)C1 [ABT263] (first compound 0.0001 µM, partner dose 0.4 µM) | 118 | 69 | 67.7 | 58.5 | 94.5 | 97.1 | 80.9 | 83.2 | 81.7 | 89 | 35.8 | 113 | 82.1 | 65
